# Data: publication PMC9911399, “Two distinct binding modes provide the RNA-binding protein RbFox with extraordinary sequence specificity”
# Numbering of substitutions follows the chain as printed; changes in the protein carry UniProt numbers. The list shows a part of the results.
# T1: RBFOX1 RRM (Homo sapiens, UniProt Q9NWB1 109-208)
# T1 sequence: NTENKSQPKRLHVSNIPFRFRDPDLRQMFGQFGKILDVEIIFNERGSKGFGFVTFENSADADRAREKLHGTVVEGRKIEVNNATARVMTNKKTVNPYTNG
# B1: GGCCUAG (DNA:RNA)
# RNA: GGGAGACCGGAAUUCAGAUUGUCCGGCCUAGUUAAAUCCCGUCGUAGCCACCA
# DNA 1: CAATCTGAATTCCGGTCTCCC
# DNA 2: TGGTGGCTACGACGGGATT
# B2: AGUGGUA (DNA:RNA)
# RNA: B1 RNA with G25A, C27U, C28G, U29G, A30U, G31A
# DNA 1: CAATCTGAATTCCGGTCTCCC
# DNA 2: TGGTGGCTACGACGGGATT
# B3: AGAGGCA (DNA:RNA)
# RNA: B1 RNA with G25A, C27A, C28G, U29G, A30C, G31A
# DNA 1: CAATCTGAATTCCGGTCTCCC
# DNA 2: TGGTGGCTACGACGGGATT
# B4: AAGAACG (DNA:RNA)
# RNA: B1 RNA with G25A, G26A, C27G, C28A, U29A, A30C
# DNA 1: CAATCTGAATTCCGGTCTCCC
# DNA 2: TGGTGGCTACGACGGGATT
# B5: AUCUGGA (DNA:RNA)
# RNA: B1 RNA with G25A, G26U, C28U, U29G, A30G, G31A
# DNA 1: CAATCTGAATTCCGGTCTCCC
# DNA 2: TGGTGGCTACGACGGGATT
# B6: GGUGCCA (DNA:RNA)
# RNA: B1 RNA with C27U, C28G, U29C, A30C, G31A
# DNA 1: CAATCTGAATTCCGGTCTCCC
# DNA 2: TGGTGGCTACGACGGGATT
# B7: UACCUUC (DNA:RNA)
# RNA: B1 RNA with G25U, G26A, A30U, G31C
# DNA 1: CAATCTGAATTCCGGTCTCCC
# DNA 2: TGGTGGCTACGACGGGATT
# B8: CUUGGCA (DNA:RNA)
# RNA: GGGAGACCGGAAUUCAGAUUGUCCCUUGGCAUUAAAUCCCGUCGUAGCCACCA
# DNA 1: CAATCTGAATTCCGGTCTCCC
# DNA 2: TGGTGGCTACGACGGGATT
# B9: CACCCGA (DNA:RNA)
# RNA: B8 RNA with U26A, U27C, G28C, G29C, C30G
# DNA 1: CAATCTGAATTCCGGTCTCCC
# DNA 2: TGGTGGCTACGACGGGATT
# B10: GGGGAAC (DNA:RNA)
# RNA: B1 RNA with C27G, C28G, U29A, G31C
# DNA 1: CAATCTGAATTCCGGTCTCCC
# DNA 2: TGGTGGCTACGACGGGATT
# B11: ACUAUGC (DNA:RNA)
# RNA: B8 RNA with C25A, U26C, G28A, G29U, C30G, A31C
# DNA 1: CAATCTGAATTCCGGTCTCCC
# DNA 2: TGGTGGCTACGACGGGATT
# B12: UACACGU (DNA:RNA)
# RNA: B1 RNA with G25U, G26A, C28A, U29C, A30G, G31U
# DNA 1: CAATCTGAATTCCGGTCTCCC
# DNA 2: TGGTGGCTACGACGGGATT
# B13: CAUAAGC (DNA:RNA)
# RNA: B8 RNA with U26A, G28A, G29A, C30G, A31C
# DNA 1: CAATCTGAATTCCGGTCTCCC
# DNA 2: TGGTGGCTACGACGGGATT
# B14: CCGGGCA (DNA:RNA)
# RNA: B8 RNA with U26C, U27G
# DNA 1: CAATCTGAATTCCGGTCTCCC
# DNA 2: TGGTGGCTACGACGGGATT
# B15: CUUCGCC (DNA:RNA)
# RNA: B8 RNA with G28C, A31C
# DNA 1: CAATCTGAATTCCGGTCTCCC
# DNA 2: TGGTGGCTACGACGGGATT
# B16: GUCUCGG (DNA:RNA)
# RNA: B1 RNA with G26U, C28U, U29C, A30G
# DNA 1: CAATCTGAATTCCGGTCTCCC
# DNA 2: TGGTGGCTACGACGGGATT
# B17: CCAUAGG (DNA:RNA)
# RNA: B8 RNA with U26C, U27A, G28U, G29A, C30G, A31G
# DNA 1: CAATCTGAATTCCGGTCTCCC
# DNA 2: TGGTGGCTACGACGGGATT
# B18: UUCUUUC (DNA:RNA)
# RNA: B1 RNA with G25U, G26U, C28U, A30U, G31C
# DNA 1: CAATCTGAATTCCGGTCTCCC
# DNA 2: TGGTGGCTACGACGGGATT
# B19: GUUGGCC (DNA:RNA)
# RNA: B8 RNA with C25G, A31C
# DNA 1: CAATCTGAATTCCGGTCTCCC
# DNA 2: TGGTGGCTACGACGGGATT
# B20: CAUCGUA (DNA:RNA)
# RNA: B8 RNA with U26A, G28C, C30U
# DNA 1: CAATCTGAATTCCGGTCTCCC
# DNA 2: TGGTGGCTACGACGGGATT
# B21: GGCCUGU (DNA:RNA)
# RNA: B1 RNA with A30G, G31U
# DNA 1: CAATCTGAATTCCGGTCTCCC
# DNA 2: TGGTGGCTACGACGGGATT
# B22: UACGAGU (DNA:RNA)
# RNA: B8 RNA with C25U, U26A, U27C, G29A, C30G, A31U
# DNA 1: CAATCTGAATTCCGGTCTCCC
# DNA 2: TGGTGGCTACGACGGGATT
# B23: CUGCUGA (DNA:RNA)
# RNA: B8 RNA with U27G, G28C, G29U, C30G
# DNA 1: CAATCTGAATTCCGGTCTCCC
# DNA 2: TGGTGGCTACGACGGGATT
# B24: GUUGUCC (DNA:RNA)
# RNA: B8 RNA with C25G, G29U, A31C
# DNA 1: CAATCTGAATTCCGGTCTCCC
# DNA 2: TGGTGGCTACGACGGGATT
# B25: CGUUUAG (DNA:RNA)
# RNA: B1 RNA with G25C, C27U, C28U
# DNA 1: CAATCTGAATTCCGGTCTCCC
# DNA 2: TGGTGGCTACGACGGGATT
# B26: CUAGGCG (DNA:RNA)
# RNA: B8 RNA with U27A, A31G
# DNA 1: CAATCTGAATTCCGGTCTCCC
# DNA 2: TGGTGGCTACGACGGGATT
# B27: CGCCGUA (DNA:RNA)
# RNA: B8 RNA with U26G, U27C, G28C, C30U
# DNA 1: CAATCTGAATTCCGGTCTCCC
# DNA 2: TGGTGGCTACGACGGGATT
# B28: CAAGCCU (DNA:RNA)
# RNA: B8 RNA with U26A, U27A, G29C, A31U
# DNA 1: CAATCTGAATTCCGGTCTCCC
# DNA 2: TGGTGGCTACGACGGGATT
# B29: AUAGCUA (DNA:RNA)
# RNA: B8 RNA with C25A, U27A, G29C, C30U
# DNA 1: CAATCTGAATTCCGGTCTCCC
# DNA 2: TGGTGGCTACGACGGGATT
# B30: GCUUGUU (DNA:RNA)
# RNA: B8 RNA with C25G, U26C, G28U, C30U, A31U
# DNA 1: CAATCTGAATTCCGGTCTCCC
# DNA 2: TGGTGGCTACGACGGGATT
# B31: CCAUGCU (DNA:RNA)
# RNA: B8 RNA with U26C, U27A, G28U, A31U
# DNA 1: CAATCTGAATTCCGGTCTCCC
# DNA 2: TGGTGGCTACGACGGGATT
# Target: T1, RBFOX1 RRM
# Assay: EMSA; HiTS-Eq, 1 nM pool, 10 min; buffer printed only for the single-RNA assays: 10 mM Tris pH 7.5, 150 mM NaCl, 3.4 mM EDTA, 0.001% NP-40, 30 C
# Conditions: tags: His6 N-terminal (pET28a); label: 5' 32P
# Method in brief: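 A pool of RNA with 7 randomized nucleotides, 5′-radiolabelled and with DNA-annealed flanks, was equilibrated at 1 nM for 10 min in 50 µL with purified RbFox RRM, wild type or mutant, across increasing protein concentrations. Free RNA was separated by 8% native PAGE, excised, reverse-transcribed, barcoded by PCR and sequenced. Relative association constants were obtained from read-count changes of each RNA species versus the control reaction and normalised to the cognate motif.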
row,Binder,binding signal
1,B1,0.00388 KA relative to UGCAUGU
2,B2,0.0144 KA relative to UGCAUGU
3,B3,0.0128 KA relative to UGCAUGU
4,B4,0.00869 KA relative to UGCAUGU
5,B5,0.00328 KA relative to UGCAUGU
6,B6,0.0125 KA relative to UGCAUGU
7,B7,0.00895 KA relative to UGCAUGU
8,B8,0.0156 KA relative to UGCAUGU
9,B9,0.00311 KA relative to UGCAUGU
10,B10,0.0298 KA relative to UGCAUGU
11,B11,0.00897 KA relative to UGCAUGU
12,B12,0.00625 KA relative to UGCAUGU
13,B13,0.00212 KA relative to UGCAUGU
14,B14,0.0121 KA relative to UGCAUGU
15,B15,0.00932 KA relative to UGCAUGU
16,B16,0.00815 KA relative to UGCAUGU

row,Binder,binding signal
1,B17,0.00778 KA relative to UGCAUGU
2,B18,0.016 KA relative to UGCAUGU
3,B19,0.0228 KA relative to UGCAUGU
4,B20,0.00357 KA relative to UGCAUGU
5,B21,0.0238 KA relative to UGCAUGU
6,B22,0.0118 KA relative to UGCAUGU
7,B23,0.0215 KA relative to UGCAUGU
8,B24,0.0202 KA relative to UGCAUGU
9,B25,0.0111 KA relative to UGCAUGU
10,B26,0.0145 KA relative to UGCAUGU
11,B27,0.00436 KA relative to UGCAUGU
12,B28,0.00533 KA relative to UGCAUGU
13,B29,0.00168 KA relative to UGCAUGU
14,B30,0.0259 KA relative to UGCAUGU
15,B31,0.00802 KA relative to UGCAUGU
